Our source for the cytotoxicity call and growth inhibition call values is the antibiotic and cytotoxicity screens of Wong et al. (2023).

SMILES strings stand for the structures. The list shows a part of the results.

The test system of one assay is HSkMC. The experiment in a line: cytotoxicity call (relative viability < 0.9). The settings on record: 10 µM.
For another assay, the system named is HepG2. The experiment in a line: cytotoxicity call (relative viability < 0.9). The settings on record: 10 µM.
Another assay has as its system S. aureus RN4220. Put plainly: growth inhibition call (relative growth <= 0.2). The settings on record: 50 µM.

For the compound `Cc1ccc(S(=O)(=O)N(C)C[C@@H]2OCCCC[C@@H](C)Oc3ccc(NC(=O)Nc4ccc5c(c4)OCO5)cc3C(=O)N([C@H](C)CO)C[C@H]2C)cc1`, the cytotoxicity call with HSkMC and with HepG2 was “inactive” each time. For the same compound, the growth inhibition call with S. aureus RN4220 was “inactive”.
On to `COc1ccc(NC(=O)N(C)C[C@@H]2OCCCC[C@@H](C)Oc3ccc(NC(=O)C4CCCCC4)cc3C(=O)N([C@@H](C)CO)C[C@H]2C)cc1`, for which the cytotoxicity call in the assay on HSkMC and in the assay with HepG2 was “inactive” throughout. Besides, the growth inhibition call in the assay with S. aureus RN4220 is “inactive”.
Consider `CC(C)NC(=O)N(C)C[C@@H]1Oc2ccc(NS(=O)(=O)c3cn(C)cn3)cc2CC(=O)N([C@@H](C)CO)C[C@@H]1C`, for which the cytotoxicity call in the assay with HSkMC and in the assay on HepG2 was “inactive” throughout. Moreover, the growth inhibition call in the assay with S. aureus RN4220 was “inactive”.
For the compound `C[C@@H]1CCCCO[C@H](CN(C)C(=O)CCC(F)(F)F)[C@@H](C)CN([C@@H](C)CO)C(=O)c2cc(NS(=O)(=O)c3ccccc3)ccc2O1`, the cytotoxicity call with HSkMC and with HepG2 was “inactive” each time. Moreover, the growth inhibition call with S. aureus RN4220 was “inactive”.
With `COc1ccc(S(=O)(=O)Nc2ccc3c(c2)C(=O)N([C@@H](C)CO)C[C@@H](C)[C@@H](CN(C)Cc2ccc(-c4ccccc4)cc2)O3)cc1`, the cytotoxicity call in the assay on HSkMC (human skeletal muscle cells) and in the assay on HepG2 was “active” each time. For the same compound, the growth inhibition call in the assay on S. aureus RN4220 was “inactive”.
As for `CCC(C)C(=O)OC1CC(C)C=C2C=CC(C)C(CCC3CC(O)CC(=O)O3)C21` (stereo unspecified), the cytotoxicity call in the assay with HSkMC and with HepG2 was “inactive” in each case. Further, in the assay on S. aureus RN4220, the growth inhibition call was “inactive”.
Take `CC(C)CC#Cc1ccc2c(c1)O[C@@H](CN(C)C(=O)c1ccccn1)[C@@H](C)CN([C@@H](C)CO)S2(=O)=O`: the cytotoxicity call in the assay with HSkMC and with HepG2 was “inactive” in each case. Besides, in the assay with S. aureus RN4220, the growth inhibition call was “inactive”.
On to `C[C@@H]1CCCCO[C@H](CN(C)C)[C@H](C)CN([C@H](C)CO)C(=O)c2cc(NC(=O)CCCN(C)C)ccc2O1`, for which the cytotoxicity call in the assay with HSkMC and in the assay with HepG2 was “inactive” each time. Besides, the growth inhibition call in the assay on S. aureus RN4220 is “inactive”.
On to `Cc1ccc(S(=O)(=O)Nc2ccc3c(c2)C(=O)N([C@H](C)CO)C[C@@H](C)[C@H](CN(C)C(=O)Nc2ccc4c(c2)OCO4)OCCCC[C@H](C)O3)cc1`, for which the cytotoxicity call in the assay with HSkMC and with HepG2 was “inactive” in each case. Besides, the growth inhibition call in the assay on S. aureus RN4220 was “inactive”.
In the case of `C[C@H]1CN([C@@H](C)CO)C(=O)c2cc(C#Cc3ccncc3)cnc2O[C@@H]1CN(C)S(=O)(=O)c1ccccc1F`, the cytotoxicity call with HSkMC is “inactive”. Besides, the cytotoxicity call in the assay with HepG2 is “active”. In the assay with S. aureus RN4220, the growth inhibition call was “inactive”.
As to `CO[C@H]1CN(C)C(=O)c2cc(NC(=O)c3ccc(F)cc3)ccc2OC[C@H](C)N(C(=O)CN(C)C)C[C@@H]1C`, the cytotoxicity call with HSkMC and in the assay on HepG2 was “inactive” throughout. In addition, in the assay with S. aureus RN4220, the growth inhibition call was “inactive”.
On to `CC[C@@H](C)n1ncn(-c2ccc(N3CCN(c4ccc(OC[C@H]5CO[C@](Cn6cncn6)(c6ccc(Cl)cc6Cl)O5)cc4)CC3)cc2)c1=O`, for which the cytotoxicity call with HSkMC was “inactive”. Also, the cytotoxicity call in the assay with HepG2 is “active”. Besides, the growth inhibition call with S. aureus RN4220 is “inactive”.
